Measurements as given in PubChem BioAssay AID1240 (Sanford-Burnham Center for Chemical Genomics, 2008).
The whole screen tested about 50,000 compounds, of which about 800 (1.6%) showed an effect of 50% or more. Some of the results follow.

These compounds were tested against Bcl-2-like protein 10 (Homo sapiens) (UniProt Q9HD36) (assay: Phenotype converters, Bcl-B/TR3 peptide binding displacement, primary biochemical FP (AID 1240;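 note: 0% = Bcl-B with tracer peptide and DMSO and 100% = tracer peptide lacking Bcl-B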)). Details: GST-Bcl-B / FITC-TR3 peptide fluorescence polarization; stronger effect = higher value; compound at 3.75 mg/L.
UniProt Q9HD36, sequence (Q9HD36 whole entry, looked up): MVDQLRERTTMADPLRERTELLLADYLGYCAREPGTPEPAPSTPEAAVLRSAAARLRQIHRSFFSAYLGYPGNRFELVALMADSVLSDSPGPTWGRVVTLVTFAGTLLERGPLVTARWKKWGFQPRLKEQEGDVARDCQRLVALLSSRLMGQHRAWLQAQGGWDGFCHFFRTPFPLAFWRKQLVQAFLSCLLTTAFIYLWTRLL

Compound	displacement [%]
Cc1cc(-c2ccc(C=C3C(=O)N(C)C(=O)N(C)C3=O)o2)c([N+](=O)[O-])cc1C	12.9
Cn1c(-c2ccc(Cl)cc2Cl)n[nH]c1=S	-26.2
CCOC(=O)c1ccc(NC(=O)/C(=C/c2ccccc2)c2ccccc2)cc1	-30.1
CC(=O)N/N=C/c1ccc2c(c1)OCO2	20.9
COCCNC(=S)Nc1ccc(F)cc1	6.5
Cc1nn(CC(=O)Nc2ccccc2C(F)(F)F)c(C)c1[N+](=O)[O-]	-5.4
CC12C=CC(C)(O1)C1C(=O)N(c3ccc(F)cc3)C(=O)C12 (centres undefined)	-0.5
COC(=O)c1ccc(-n2c(C)cc(/C=C3\SC(=S)NC3=O)c2C)cc1	28.3
O=C(O)c1ccccc1C(=O)c1ccc(F)c(F)c1	-2.8
COc1cc(-c2nnc3ccc4ccccc4n23)ccc1OCc1ccccc1	-3.3
Cc1ccc(OCCSc2ncnc3nc[nH]c23)cc1	4.7
Cc1ccc(N(CC(=O)Nc2cccc(Br)c2)S(C)(=O)=O)cc1Cl	-4.3
CCCCOC(=O)Cn1c(=N)n(CCC)c2ccccc21	-2
COc1cc(NC(=O)Cn2nc([N+](=O)[O-])c(Cl)c2C)cc([N+](=O)[O-])c1	-4.1
CCC(=O)Oc1ccc2ccc(=O)oc2c1	4.6
CC(C)(C)c1ccc(OCC(=O)Nc2ccc3oc(-c4cccnc4)nc3c2)cc1	-8.5
CCCS(=O)(=O)c1c(S(=O)(=O)CCC)c2c(N)cccn2c1C(=O)c1ccc(OC)cc1	17.1
O=c1[nH]c(=S)n(-c2ccc(Cl)c(Cl)c2)c(O)c1/C=C1\C=CC=N1	6.4
COc1cc(C2Nc3cc(C)c(C)cc3NC3=C2C(=O)CC(C)(C)C3)cc(Br)c1OC (centres undefined)	-0.9
Cc1ccc(C(=O)N2CCN(C(=O)c3ccc(C)cc3)CC2)cc1	-11.6
COC(=O)c1cnn2c(C(F)(F)F)cc(-c3ccccc3)nc12	2.1
CCOC(=O)c1ccccc1NC(=O)CN(c1ccc(OC)cc1)S(C)(=O)=O	-3.1

Compound	displacement [%]
CN(C)c1cccc(NC(=O)CCc2ccccc2)c1	11.9
COC(=O)C1=C(C)N(C)C(C)=C(C(=O)OC)C1c1ccc(Br)cc1	-10.8
CCN(CC)CCN1C(=O)C(O)=C(C(=O)/C=C/c2ccccc2)C1c1ccc(C)cc1 (centres undefined)	-8.5
COC(=O)c1ccc(-c2ccc(/C=N\Nc3ccc([N+](=O)[O-])cn3)o2)cc1	9
C=CCOc1ccc(/C=C2\C(=O)NC(=S)N(c3ccc(Br)cc3)C2=O)cc1OC	-7.7
Cc1cc(C)cc(NC(=O)COc2cccc(C)c2)c1	10.4
CCN(CC)CCn1c2ccccc2n2cc(C(C)(C)C)nc12	-8.7
COc1ccc(-c2csc(/C(C#N)=C\c3cc(OC)ccc3OC)n2)cc1	-5.9
COc1ccc(OC(C)C(=O)Nc2ccccc2C(N)=O)cc1 (centres undefined)	7.8
COc1ccccc1OCCCn1ccnc1	-7.3
O=C(COc1ccc(Cl)cc1Cl)NNC(=O)C1COc2ccccc2O1 (centres undefined)	-4.7
CCC(=O)Oc1ccc2c(C)c(Cl)c(=O)oc2c1	6.6
O=C(Cc1ccc(Cl)cc1)Nc1ccc(Cl)cn1	8.8
C/C(=N\NC(=O)C1(C)CC1(Br)Br)c1ccc(Cl)s1 (centres undefined)	-3.8
COCCNC(=O)CN(c1ccc(F)cc1)S(=O)(=O)c1ccccc1	-0.6
Cc1ccc(S(=O)(=O)Nc2c(C)n(C)n(-c3ccccc3)c2=O)cc1[N+](=O)[O-]	-9.4
COc1cc(/C=C2\C(=O)NC(=S)N(c3ccc(Cl)cc3)C2=O)ccc1OCc1ccc(C(=O)O)cc1	10.1
O=[N+]([O-])c1cccc2c1NC(c1ccc(Cl)cc1)C1CC=CC21 (centres undefined)	7.5
COc1ccc(NS(=O)(=O)c2ccc(C(C)C)cc2)cc1	1.8
CCOc1ccc2nc(SCC(=O)NC(C)c3ccccc3)sc2c1 (centres undefined)	1.7
Cc1cc(/C=C2\C(=O)NC(=O)N(c3ccccc3F)C2=O)c(C)n1-c1cccc([N+](=O)[O-])c1	8.6
O=C1c2cccc3cccc(c23)C(=O)N1CCC(=O)n1cnc2ccccc21	-7.7

Compound	displacement [%]
CNC(=O)/C(C#N)=C/c1ccc([N+](=O)[O-])o1	39.4
CCOC(=O)C1C(=O)C=C(/C=C/c2ccco2)CC1c1ccccc1 (centres undefined)	0.3
CC1C(=O)CC(c2ccc(Cl)cc2)NC1c1ccc(Cl)cc1 (centres undefined)	1.8
c1ccc2[nH]c(CSc3nc4ccccc4s3)nc2c1	-18.8
O=C(O)c1cc(NC(=O)c2ccc(I)cc2)cc(C(=O)O)c1	-5.9
CCc1c(C)nc2cc(-c3cccc(F)c3)[nH]n2c1=O	8.2
Cc1ccc(N2C(=O)NC(=O)/C(=C/c3cccc(Cl)c3)C2=O)cc1	-8.8
CCc1ccc(-c2nc(-c3ccccc3C)no2)cc1	-3.7
CCOC(=O)N1N=C(C)CC1(O)c1ccc(Br)cc1 (centres undefined)	-8.5
CCOC(=O)c1ccc(-c2ccc(C(=O)Nc3ccc(-c4nc5ccccc5o4)cc3)o2)cc1	20.2
Fc1ccc(OCCCn2ccnc2)cc1	16.9
CCCCS(=O)CC(O)COC(C)C (centres undefined)	-1.5
COc1ccc(C2CC(C(F)(F)F)n3nc(C(=O)NCc4cccs4)cc3N2)cc1OC (centres undefined)	7.1
CC1(C)CC(=O)C2=C(C1)Nc1ccccc1NC2c1cccc(O)c1O (centres undefined)	-0.4
O=C(Nc1nc(-c2ccccc2)cs1)C(c1ccccc1)c1ccccc1	1.4
O=C(Nc1ccc(-c2nc3ccccc3c(=O)o2)cc1)c1ccccc1F	9.7
O=C(O)c1ccc(S(=O)(=O)n2cnc3ccccc32)cc1	1.8
Clc1cccc(-n2ncnc2-c2cccc(Br)c2)c1	-4
CCCOc1ccc(/C=N/N(C)c2cc(C)nc(-c3ccccc3O)n2)c(O)c1	-2.1
CCOC(=O)CC(=O)c1cc(C(C)=O)c(Nc2ccccc2)s1	-2.8
O=C(Cc1ccc(Br)cc1)Nc1ccc(Cl)c(Cl)c1	19.9
COC(=O)C1=C(C(=O)OC)C2C=CC1C1C=CC21 (centres undefined)	1.4

Compound	displacement [%]
CC1=C(C#N)C(c2ccccc2F)C2=C(CCCC2=O)N1 (centres undefined)	-3.4
CCc1ccc(NC(=O)C2CC(=O)N(c3ccccc3)C2)cc1 (centres undefined)	-6.2
CCOC(=O)C1CCN(C(=O)/C=C/c2cccc([N+](=O)[O-])c2)CC1	4.4
O=C(/C=C/c1ccc(-c2ccccc2[N+](=O)[O-])o1)Nc1ccc(NC(=O)c2ccco2)cc1	-0.2
CC(C)(C)C(=O)Nc1ccc(C(=O)Nc2cccc(O)c2)cc1	-2.1
COc1ccc(CNC(=O)c2ccccc2N(Cc2ccccc2)S(=O)(=O)c2ccc(C)cc2)cc1	-1.8
CCC(C(C)=O)C(=O)Nc1ccccc1 (centres undefined)	14.9
COc1ccccc1NC(=O)c1cc(Nc2ccccc2)nc2ccccc12	13.2
O=C(NCCc1ccccc1)/C(=C/c1ccc(-c2cccc([N+](=O)[O-])c2)o1)NC(=O)c1ccccc1	2.5
CCCCN(CC)Cc1c(C)[nH]c2ccc(C)cc2c1=O	10.5
Cc1ccc(NC(=O)C2CCCN2C(=O)C(C)(C)C)cc1 (centres undefined)	3.9
Cc1onc(-c2ccccc2)c1C(=O)NCCNc1c(Cl)cccc1[N+](=O)[O-]	-1.3
NC(=O)c1ccccc1NC(=O)c1ccc(Cl)cc1[N+](=O)[O-]	-7.6
COC(=O)c1c(NC(=O)c2cncc(Br)c2)sc2c1CCC(C)C2 (centres undefined)	15.9
O=C(CN1CCCCC1)Nc1ccc(I)cc1	-3.9
COc1cc([N+](=O)[O-])ccc1-c1ccc(CO)o1	8
CC1=NNC(=O)C1CC(=O)N/N=C/c1c(O)ccc2ccccc12 (centres undefined)	-20.7
CNc1nc2nonc2nc1Nc1ccc(C)c(C)c1	15
O=C1CC(=O)N(Cc2ccccc2)CCN1Cc1ccccc1	4.9
Nc1ccc2nc(SCc3ccc(Cl)cc3)sc2c1	4.4
COc1cc(Cl)cc(/C=C2/C(=O)NC(=O)N(c3cccc(C)c3)C2=O)c1O	-9.5
CC(C)(C)OC(=O)COc1ccc2cc(-c3nc4ccccc4s3)c(=O)oc2c1	92

Compound	displacement [%]
Cc1cc(NC(=O)Nc2cccc(F)c2)no1	-5.8
O=[N+]([O-])c1cccc(S(=O)(=O)Nc2ccc(Cl)c(Cl)c2)c1	-6
Cc1cc(Cl)ccc1OCC(=O)NCC1CCCO1 (centres undefined)	1.4
C=CCSc1nc2ccccc2n1C(=O)CCCN1C(=O)c2cccc3cccc(c23)C1=O	-13.4
COc1cc(OC)cc(C(=O)N2CCN(Cc3ccccn3)CC2)c1	-20.2
CC(C)(C)NC(=O)C(=O)N/N=C/c1ccc(Br)cc1	1.6
Brc1cc2c(cc1/C=N/Nc1nc(N3CCOCC3)nc(N3CCOCC3)n1)OCO2	20.2
COC(=O)c1cc(NC(=O)c2ccc(OC)c(Br)c2)cc(C(=O)OC)c1	1.7
CN1CCN(c2nc(-c3ccncc3)nc3ccccc23)CC1	8.7
COc1ccc(NC(=O)c2cnn3c2NC(c2ccc(F)cc2)CC3C(F)(F)F)c(OC)c1 (centres undefined)	-1.1
COc1cc(NC(=O)c2ccc(Cl)cc2)c(Cl)cc1NC(=O)c1cccs1	-5.7
CC(=O)NS(=O)(=O)c1ccc(NC(=O)/C=C/c2ccc(C(C)(C)C)cc2)cc1	-0.1
O=C(Nc1nc(-c2ccc([N+](=O)[O-])cc2)cs1)c1ccccc1F	113
COc1ccc(/C=N/NC(=O)c2cccc([N+](=O)[O-])c2)cc1Br	1.2
CS(=O)(=O)N(CC(=O)N1CCCC1)c1ccc(Oc2ccccc2)cc1	-0.7
Cc1cc(C)nc(SCC(=O)N2c3ccccc3Sc3ccc(C(F)(F)F)cc32)n1	6.3
CNC(=O)c1c(-c2ccccc2)oc2ccc(OC)cc12	6.7
COc1ccc(C(=O)N/N=C/c2ccc(N3CCOCC3)o2)cc1OC	-0.4
CCOc1ccccc1NC(=O)c1c(NC(=O)c2ccccc2Br)sc2c1CCC2	-7.2
Cc1ccc(S(=O)(=O)NC(=O)c2ccccc2)cc1C(C)C	13.3
CCN(CC)C(=O)c1sc(NC(=O)/C=C/C(=O)O)c(C(=O)OC)c1C	-0.2
